Measured values as given in PubChem BioAssay AID1159614 (National Center for Advancing Translational Sciences (NCATS), 2016).
Among all 45,000 compounds or so, about 65 (0.1%) were called active. Calls follow the shape of the dose curve; as a rule, active = well fitted activation curve with a large enough effect; inconclusive = small, poorly fitted or top-dose-only effect; inactive = no such curve, though single readings can be large or run the other way. This is one part of the list.

Molecular target: Galactocerebrosidase (Homo sapiens) (UniProt P54803)
Chain of UniProt P54803 (P54803 whole entry, looked up): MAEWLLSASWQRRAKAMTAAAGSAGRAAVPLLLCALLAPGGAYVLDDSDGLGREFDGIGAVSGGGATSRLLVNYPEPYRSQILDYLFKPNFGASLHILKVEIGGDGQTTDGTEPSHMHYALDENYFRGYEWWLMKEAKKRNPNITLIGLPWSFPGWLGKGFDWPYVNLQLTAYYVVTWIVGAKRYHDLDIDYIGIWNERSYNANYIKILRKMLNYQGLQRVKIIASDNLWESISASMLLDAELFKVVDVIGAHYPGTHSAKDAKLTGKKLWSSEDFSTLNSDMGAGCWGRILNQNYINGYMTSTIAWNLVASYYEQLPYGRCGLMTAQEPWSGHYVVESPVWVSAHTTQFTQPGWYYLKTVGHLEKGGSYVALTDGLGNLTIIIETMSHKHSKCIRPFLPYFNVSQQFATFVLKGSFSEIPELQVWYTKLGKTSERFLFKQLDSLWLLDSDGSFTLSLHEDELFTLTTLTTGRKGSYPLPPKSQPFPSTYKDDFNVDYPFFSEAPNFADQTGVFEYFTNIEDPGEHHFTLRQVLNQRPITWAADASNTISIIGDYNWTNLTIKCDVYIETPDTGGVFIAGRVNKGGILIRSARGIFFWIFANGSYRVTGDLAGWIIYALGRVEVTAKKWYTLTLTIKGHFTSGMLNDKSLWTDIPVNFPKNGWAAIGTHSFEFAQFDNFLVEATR
Experiment: A Novel Cell-Based Assay to Identify Small Molecules for B -Galactocerebrosidase; also: 0% is about no effect; nearly all actives have a fitted effect of over 65% in size
Settings: 145M-Twi-hGALC-G270D cells (Twitcher mouse brain line with human GALC G270D), HMU-beta-Gal fluorescence, 48 h; series mostly up to 57.5 µM; activation: at the top concentration
Summary of the method: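 Brain-derived Twitcher mouse 145M-Twi cells stably expressing human GALC-G270D or wild-type GALC, treated live, then residual GALC activity read by fluorescence of HMU-b-Gal substrate (0.1 mM final) in citrate-phosphate buffer pH 5.2 with sodium taurocholate. Signal increase indicates enhancement.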

activation, inactive:
CCc1cccc(N2C(=O)CS(=O)(=O)C23C(=O)N(Cc2ccc(F)cc2)c2ccc(C)cc23)c1 (stereo not given) -23.1%
O=C(NCCC1=CCCCC1)c1ccc2c(c1)N(Cc1ccccc1F)C(=O)c1ccccc1S2(=O)=O -15.1%
CCOC(=O)c1cc(-c2ccccc2)n(-c2cccc(C(=O)N(CC)c3ccccc3)c2)c1C 3.89%
CCN1c2cc(C)ccc2-n2cccc2C12CCN(C(=O)Nc1cc(OC)c(OC)c(OC)c1)CC2 -2.79%
Cc1ccc(S(=O)(=O)c2nc(-c3ccco3)oc2SCc2ccccc2Cl)cc1 -37.2%
CCOC(=O)c1c(NC(=O)c2ccc(S(=O)(=O)N3CCCC(C)C3)cc2)sc2c1CCN(C(C)C)C2 (stereo not given) -20%
COc1ccc(N2CCN(C(=O)NCc3noc4ccccc34)CC2)cc1 -11.2%
COc1cccc(NC(=O)C2CCCN2S(=O)(=O)c2ccc3c(c2)C(C)(C)C(=O)N3C)c1 (stereo not given) 3.91%
Cc1ccc2oc3c(c(=O)c2c1)C(c1cccc(O)c1)N(Cc1ccccc1Cl)C3=O (stereo not given) -19.5%
Cc1cc(C)cc(-n2ccn3c(CC(C)(C)CC(=O)O)nnc3c2=O)c1 3.12%
CC(C)c1ccc2oc(-c3cccc(NC(=O)c4ccc5c(c4)OCCO5)c3)nc2c1 -18.9%
Cc1c2cnn(-c3ccccc3)c(=O)c2c(C)n1C(C)C(=O)Nc1ccc(Br)cc1F (stereo not given) -19.4%
Cc1ccc(-n2c(SCC(=O)Nc3cccc(F)c3)nc3c(oc4ccccc43)c2=O)cc1C 10.5%
N#Cc1ccccc1Cn1c(=O)n(Cc2ccc(C(=O)NC3CCN(Cc4ccccc4)CC3)cc2)c(=O)c2ccccc21 -7.92%
CCOc1ccc(/C=C/c2nc(C#N)c(Nc3ccc(OC)cc3)o2)cc1 -8.35%
CCCOc1ccc(CN(C(=O)c2nc(SC(C)C)ncc2Cl)C2CCS(=O)(=O)C2)cc1 (stereo not given) -9.91%
CSc1ccc(CCNC(=O)CCc2c(C)nc3cc(-c4ccccc4)nn3c2C)cc1 -2.8%
CCNC(=O)c1ccc2nc(Cc3ccccc3)oc2c1 -7.27%
COc1cc2[nH]c(=O)n(CCCCCC(=O)NCCc3ccccc3)c(=O)c2cc1OC -16.9%
Fc1ccc(-c2ccc(CNCCSc3nnnn3-c3ccccc3)o2)cc1Cl -26.9%
O=C(Nc1c(C(=O)Nc2cccc(F)c2)oc2ccccc12)c1cc2ccccc2o1 -5.9%
CCOc1nc(-c2ccc(C)cc2)ccc1-c1noc(-c2ccccc2F)n1 -11.7%
O=C(Nc1nnc(S(=O)(=O)N2CCc3ccccc32)s1)c1ccccc1 -8.3%
CC(C)COc1ccc(C(=O)N2CCN(CCc3ccccn3)CC2)cc1 -5.2%
COc1cccc(C2c3c(-c4ccccc4O)n[nH]c3C(=O)N2CCc2ccc(OC)c(OC)c2)c1 (stereo not given) -7.13%
O=C(CSc1ncc(CO)n1Cc1ccccc1)Nc1ccc(C(F)(F)F)cc1 -29.4%
CCOC(=O)c1c(NC(=O)COc2cccc(C(F)(F)F)c2)sc2c1CCCCC2 -7.61%
COc1ccc(NC(=O)CC(C)n2nc(C)cc2C)cc1Cl (stereo not given) -13%
COc1ccc(CCNC(=O)CCc2c(C)c3cc4c(C)c(C)oc4cc3oc2=O)cc1 -5.07%
CCn1c(C(=O)Nc2cc(Cl)ccc2C)cc2sc(Cl)cc21 -11.6%
CCOc1ccc(CCNC(=O)Cn2ncn3c(cc4ccccc43)c2=O)cc1OCC -5.27%
COc1cc(NC(=O)c2cnc3c(-c4ccc(F)cc4)c(C)nn3c2C)cc(OC)c1 -12.3%
Cc1ccc(Sc2c(C(=O)NCc3ccccc3C)[nH]c3ccccc23)cc1 -1.75%
COc1ccc(CNC(=O)CN2C(=O)CCCc3ccccc32)cc1 -6.75%
CCN(CC)S(=O)(=O)c1ccc2oc(C(=O)Nc3ccc(Br)cc3F)c(C)c2c1 -8.67%
Cc1ccc(-c2nc3ccc(Cl)cn3c2Nc2ccc3c(c2)OCCO3)s1 2.45%
COc1cc(Nc2nc3c(S(=O)(=O)c4cccc(Cl)c4)nnn3c3ccsc23)cc(OC)c1 -16.3%
Cc1ccc2c(c1)c1c(c(=O)n(-c3cccc(Cl)c3)c(=O)n1CC(N)=O)n2C -8.77%
CCOc1ccc(NC(=O)Cn2nc(CC)n3c(cc4sccc43)c2=O)cc1 -20.2%
COc1ccc(OCC(=O)Nc2cc(-c3nc4ccccc4o3)ccc2Cl)cc1 -8.12%
COC(=O)c1ccccc1NC(=O)Cn1c(=O)n(-c2ccc(C)cc2)c(=O)c2ccccc21 -10.7%
Cc1ccccc1OCCSc1nc2ccc(NC(=O)c3ccco3)cc2s1 -30.8%
Cc1ccc(NC(=O)CN2C(=O)c3ccccc3Sc3ccc(C(=O)N4CCOCC4)cc32)cc1C -7.23%
O=C1Nc2ccccc2C1Cc1ccc(Br)cc1 (stereo not given) -10.9%
COc1ccccc1OCCNCC(O)COc1cccc2[nH]c3ccccc3c12 (stereo not given) -8.9%
CCC(=O)N1CCc2cc(S(=O)(=O)NCCC(=O)Nc3ccc(C)cc3C)ccc21 -11.4%
Cc1ccc(NC(=O)CSc2nc3nccnc3c(=O)n2CCc2c[nH]c3ccccc23)cc1C -5.49%
Cc1ccc(CNC(=O)Cn2ccn(-c3ccc(F)c(F)c3)c(=O)c2=O)cc1 -17.8%
CCCn1c(=N)c(C(=O)NCc2ccco2)cc2c(=O)n3cc(C)ccc3nc21 -8.24%
CCC(Sc1nc2ccncc2[nH]1)C(=O)Nc1cc(C)ccc1C (stereo not given) 10.5%
Oc1c(C(c2ccc(Cl)cc2Cl)N2CCN(Cc3ccccc3)CC2)sc2nc(-c3ccco3)nn12 (stereo not given) -10.4%
CC(=O)c1cccc(NC(=O)c2cc3sc(Cl)cc3n2C)c1 -14.7%
CCOc1ccc(C(=O)Nc2ccc(C(=O)OCc3cc(=O)n4c(C)csc4n3)cc2)cc1 4.66%
Cc1ccc(CNC(=O)c2ccc(N3Cc4ccccc4Oc4ncccc43)s2)cc1 -7.81%
CCOCCCNC(=O)C(c1ccc(Cl)cc1)N(Cc1ccc2c(c1)OCO2)C(=O)c1ccc(NC(C)=O)cc1 (stereo not given) -2.27%
CCC(=O)Nc1ccc(-c2nc3ncccc3o2)cc1C -22.2%
CC(C)c1nc(CN(C)C(=O)N[C@H](C(=O)N[C@@H](Cc2ccccc2)C[C@H](O)[C@H](Cc2ccccc2)NC(=O)OCc2cncs2)C(C)C)cs1 -5.68%
COCCNC(=O)CCCn1c(SCc2ccccc2C)nc2c(sc3ccccc32)c1=O -35.6%
Cc1ccc(C2N3CC4(C)CN2CC(c2ccccc2)(C3)C4=O)cc1 (stereo not given) -11.4%
CCn1cc(/C=C(\NC(=O)c2ccccc2Cl)C(=O)NCCCn2ccnc2)c2ccccc21 1.76%
O=C(NCCc1ccccc1)c1ccc2c(c1)CCN2S(=O)(=O)c1ccc(Cl)cc1 -14.8%
CC1CCN(S(=O)(=O)c2ccc3c(c2)N(CC(=O)NCCN(C)C)C(=O)CS3)CC1 -3.17%
Cc1ccc2c(CC(=O)Nc3ccc(S(=O)(=O)N4CCCC(C)C4)cc3)coc2c1 (stereo not given) 2.78%
O=C(Cn1c(=O)c2cccn2c2ccc(F)cc21)Nc1cccc(F)c1 -2.57%
CCCCN(C)C(=O)C1CCC(Cn2c(=O)[nH]c3ccsc3c2=O)CC1 (stereo not given) -14.8%
COC(=O)c1cc(NC(=O)Cn2ncc3c([nH]c4ccccc43)c2=O)cc(C(=O)OC)c1 6.32%
Cc1ccc(Cl)cc1NC(=O)c1cc(S(=O)(=O)N2CCOCC2)cn1C -6.41%
COc1ccccc1CNc1ncnc2c1nc1n2CCCC1 -12.6%
Cc1cc(NC(=O)c2cc(-c3ccc(F)cc3)on2)nn1Cc1ccc(Cl)cc1 -27.3%
O=C(O)c1ccc2c(c1)N(Cc1ccc(F)cc1)C(=O)c1ccccc1S2=O (stereo not given) -9.29%
COc1ccccc1CNS(=O)(=O)c1c(C)nc2sc(C)cn2c1=O -14.6%
Cc1oc2ncnc(N3CCOCC3)c2c1C(=O)Nc1ccc(Br)cc1F -20.8%
CCOc1ccc(-c2cc3c(=O)n(CC(=O)NCc4ccccc4)ccn3n2)cc1 -9.23%
Fc1ccc(-n2nc(-c3ccccc3)c3cnc4ccccc4c32)cc1Cl -7.53%
OC(c1ccccc1)c1nc2ccccc2n1Cc1c(F)cccc1Cl (stereo not given) -17.9%
O=C(Nc1ccc(Cl)cc1F)c1cc(S(=O)(=O)NC2CCCCCC2)ccc1F -15.7%
CCCc1nn2c(=O)cc(COC(=O)c3ccccc3NC(=O)c3ccc(OCC)cc3)nc2s1 -12.4%
CC(C)CCNC(=O)C1CCC(CNS(=O)(=O)c2cccc3nsnc23)CC1 (stereo not given) -20.1%
CCc1ccc(NC(=O)CN2C(C(=O)OC)=C(c3ccccc3)c3ccccc3S2(=O)=O)cc1 -8.44%
O=C(CSc1nc(=O)n(Cc2ccccn2)c2c1CCC2)Nc1cccc(Cl)c1 -9.86%
COCCNC(=O)CSc1nc(-c2ccc(C)cc2)[nH]c1-c1ccc(OC)cc1 -20.2%
COc1ccc(Cl)cc1NC(=O)CSc1nc(=O)[nH]c2c1CCC2 -20.5%
Cc1cccc(NC(=O)c2oc3ccccc3c2NC(=O)Cc2coc3cc(C)cc(C)c23)c1 -12.7%
Cc1ccccc1OCC(=O)Nc1ccccc1C(=O)OCc1cc(=O)n2nc(C3CC3)sc2n1 -16%
Cc1ccc(C(=O)c2cn(Cc3ccccc3)c3ccccc3c2=O)cc1 -7.84%
Cc1cccc(-c2nc3cc(NC(=O)COc4ccccc4F)ccc3o2)c1 -15.1%
COc1ccc(NC(=O)Cn2ccn(-c3ccc(C)c(C)c3)c(=O)c2=O)cc1Cl -8.79%
Cc1cc(N2CCN(c3ccc(F)cc3)CC2)n2cnnc2n1 -11.7%
Cc1ccc(-c2c3c(=O)n(C)c(=O)n(C)c3c3c(C)nc4ccccc4n23)cc1 -15.2%
CC1CCN(c2nc3ccccc3nc2C(F)(F)F)CC1 -10.4%
Cc1ccc2ncc(C(=O)c3ccc(C)c(C)c3)c(S(=O)(=O)c3ccccc3)c2c1 -6.91%
CCOc1cccc(C2c3c(oc4ccc(F)cc4c3=O)C(=O)N2c2cc(C)ccn2)c1 (stereo not given) -18.6%
O=C(Nc1nc2ccccc2n1CCOc1ccccc1Cl)c1ccccc1 -8.05%
Cc1cccc(CN2C(=O)c3ccccc3Sc3ccc(C(=O)NCCCN4CCOCC4)cc32)c1 2.56%
CC1CN(C(=O)N2CCC(C(=O)NCc3ccco3)CC2)c2ccccc2O1 (stereo not given) -16.7%
